# Assay results published in PubChem BioAssay AID686978 (National Center for Advancing Translational Sciences (NCATS), 2013).
# About 64,000 (15%) of roughly 420,000 compounds were called active. Inconclusive means that the source gave no clear call. Such entries were picked first, then a sample of the others. Calls follow the shape of the dose curve; as a rule, active = well fitted inhibition curve with a large enough effect; inconclusive = small, poorly fitted or top-dose-only effect; inactive = flat fitted curve, though single readings scatter. No potency is given beside an inconclusive call; the fits are too rough.
# Assay: qHTS for Inhibitors of human tyrosyl-DNA phosphodiesterase 1 (TDP1): qHTS in cells in absence of CPT; also: nearly all actives have a fitted effect of over 55% in size
# Conditions: DT40 Tdp1-/- hTDP1 cells, no CPT, ATP luminescence, 48 h; activity change, negative = growth inhibition: at 46.2 µM (top of the series) unless noted
# In short: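 Seeded 400 DT40-hTDP1 cells/well (vehicle DMSO, no 20 nM CPT); pinned compounds; ≥48 hr at 37 °C; CellTiter-Glo luminescence as viability measure.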
# % is scaled to controls: 0 for no effect and ±100 for the full control effect; potency is read from the fitted curve at half-maximal effect; tags tell the direction and shape of the fitted curve.
SMILES,Potency,"activity change, negative = growth inhibition"
COc1ccccc1-n1c2nc3ccccc3nc2c2c(=O)n(-c3cc(C)cc(C)c3)cnc21,"inconclusive [inhibitor, single point]",
O=C(NC1=NCCS1)c1ccccc1OCc1ccccc1Cl,"inconclusive [inhibitor, single point]",
COc1cc(OC)c(C2C=C(c3ccc(C)cc3)Nc3c(C(=O)Nc4ccccc4)cnn32)cc1OC (centres undefined),"inconclusive [inhibitor, single point]",
C=CCNc1ncnc2c1cnn2-c1ccc(C)cc1C,"inconclusive [inhibitor, partial curve, poor fit]",
Cc1[nH]c(C)c(S(=O)(=O)N2CCN(c3cccc(C(F)(F)F)c3)CC2)c1C(=O)N1CCCCC1,active: 10.3 µM,
CCOC(=O)N1CCC(=NNc2ncc(C(F)(F)F)cc2Cl)CC1,,inactive: -10.6%
C/C(=N\NC(=O)c1ccc(Cn2cc(Br)cn2)o1)c1cccc(NC(=O)C(C)C)c1,"inconclusive [inhibitor, single point]",
CCCCN(C(=O)C(C)Oc1cccc(Cl)c1)c1c(N)n(CCC)c(=O)[nH]c1=O (centres undefined),,inactive: 12.2%
CCn1cc(C(=O)NCc2ccccc2)c(=O)c2cc(S(=O)(=O)N3CCOCC3)ccc21,,inactive: -11.6%
CCCn1c(N)c(C(=O)COC(=O)/C=C/c2ccc(OC(F)F)c(OC)c2)c(=O)[nH]c1=O,"inconclusive [inhibitor, partial curve, poor fit]",
CCc1ccc(C2N3CC4(C)CN2CC(c2ccccc2)(C3)C4=O)cc1 (centres undefined),"inconclusive [inhibitor, single point]",
O=C(COC(=O)c1ccccc1Nc1ccc(SC(F)F)cc1)NCc1ccco1,"inconclusive [inhibitor, single point]",
Cc1c2cnn(CC(=O)N3CCCCC3)c(=O)c2c(C)n1Cc1ccc(Cl)cc1,active: 23.1 µM,
O=S1(=O)C=C(SCc2ccccc2)Nc2ccccc21,"inconclusive [inhibitor, single point]",
CNC(C)C1CC[C@H](N)[C@@H](OC2C(N)C[C@H](N)[C@@H](OC3OC[C@](C)(O)C(NC)[C@H]3O)C2O)O1 (some centres undefined),,inactive: -6.94%
Cc1ccc(/C=C2/SC(=S)N(c3ccc(S(=O)(=O)Nc4nccs4)cc3)C2=O)cc1,"inconclusive [inhibitor, single point]",
O=C(/C=C/c1ccccc1)c1ccc2c3c(cccc13)CC2,"inconclusive [inhibitor, single point]",
CCC(c1nc2ccccc2[nH]1)N(C(=O)Cc1cc(OC)cc(OC)c1)c1ccc(N2CCOCC2)cc1 (centres undefined),"inconclusive [inhibitor, single point]",
N#Cc1ccccc1Sc1ccccc1C(=O)Nc1ccccc1,,inactive: -29.5%
COc1ccc(/C=C/C(=O)Nc2ccccc2C(=O)N2CCCC2)cc1,,inactive: 2.5%
CCOC(=O)C(C)NC(=O)c1cc2c(=O)[nH]c3ccc(C)cc3c2s1 (centres undefined),"inconclusive [inhibitor, single point]",
O=C(Nc1cccc(S(=O)(=O)N2CCCCC2)c1)c1cncc(Br)c1,active: 18.4 µM,

SMILES,Potency,"activity change, negative = growth inhibition"
CC(NC(=O)c1ccc(N2Cc3ccccc3Oc3ncccc32)s1)c1ccccc1 (centres undefined),"inconclusive [inhibitor, single point]",
COc1ccc2c(c1)-c1nc(-n3ncc(C(=O)N(C)CC4CCCN(C)C4)c3C)ncc1CC2 (centres undefined),"inconclusive [inhibitor, single point]",
CCc1c(C)nc2c(-c3ccccc3)c[nH]n2c1=O,"inconclusive [inhibitor, single point]",
O=C(CN1CCN(c2ccccn2)CC1)Nc1cccc(C(F)(F)F)c1,"inconclusive [inhibitor, partial curve]",
CC(C)c1ccc(S(=O)(=O)N2CCC(C(=O)N3CCN(c4cccc(Cl)c4)CC3)CC2)cc1,"inconclusive [inhibitor, single point]",
Cc1ccc(/C=C/C(=O)c2ccc([N+](=O)[O-])o2)cc1,active: 2.06 µM,
O=C(NNC(=S)NCc1ccccc1)c1ccc(Br)o1,"inconclusive [inhibitor, single point]",
CCc1nccn1-c1cc(C(C)(C)C)nc2c(-c3ccc(Cl)cc3)cnn12,active: 18.4 µM,
Cc1cc(-c2cccs2)c2c(N)c(C(=O)c3ccc4c(c3)OCO4)sc2n1,"inconclusive [inhibitor, single point]",
Cc1ccc(NS(=O)(=O)c2cccc(C(=O)NCCc3c[nH]c4ccccc34)c2)c(C)c1,"inconclusive [inhibitor, single point]",
CC(C)c1onc(C(=O)N2CCC(C(N)=O)CC2)c1[N+](=O)[O-],,inactive: 1.89%
CCC(=O)NC(c1ccc(Cl)cc1Cl)c1ccc2cccnc2c1O (centres undefined),active: 5.17 µM,
O=C(CSc1ccccc1)Nc1ccncc1,"inconclusive [inhibitor, single point]",
O=C1C(O)CCN1C1CCCCC1 (centres undefined),,inactive: -10.6%
COc1ccc(-c2[nH]c(-c3ccccc3)nc2SCC(=O)Nc2ccc3c(c2)OCO3)cc1,active: 20.6 µM,
Cc1ccccc1CSCCNC(=O)Nc1ccccc1,"inconclusive [inhibitor, single point]",
CCOC(=O)C1=CC[C@@H](c2ccccc2)N(S(=O)(=O)c2ccc(C)cc2)[C@H]1c1ccc(C#N)cc1,active: 9.2 µM,
Clc1ccc(OCCn2cnc3ccccc32)c(Cl)c1,"inconclusive [inhibitor, partial curve]",
N/C(COc1cccc(C(F)(F)F)c1)=N\NC(=O)c1cccnc1Oc1ccccc1,"inconclusive [inhibitor, partial curve]",
Cn1ccs/c1=N\C(=O)Nc1cccc(C(F)(F)F)c1,,inactive: 13.5%
COc1ccc(-c2nc(CSc3nc4ncccc4[nH]3)c(C)o2)cc1OC,active: 20.6 µM,
CCOc1ccc2ccccc2c1C(=O)NCC(c1ccc(N(C)C)cc1)N(C)C (centres undefined),,inactive: -24%
